# Experimental data as given in the supplement of paper PMC10126150.
# Values marked as one replicate rest on one cluster of the flow cell; about a third of the high ones do not repeat.
# System: ATP
# Experiment: switch fluorescence ratio, 500 uM ATP over buffer (Cy3 cluster intensity, sum of 5 cycles each) (fold (ratio)); higher = stronger signal-on switching upon ATP binding; sequences stand for … in TCGTCGGCAGCGTCAGATGTGTATAAGAGACAGTTTTTTTTTTTTTTTTTTTTTTTTT…TC
# Conditions: aptamer strand: ATP DNA aptamer (quencher-CACCTGGGGGAGTATTGCGGAGGAAGG + anchor), 100 nM annealed; ATP concentration: 500 uM; one replicate
# Procedure, shortened: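 Between each of five buffer/ATP cycles, the flow-cell was stripped with NaOH and re-annealed. Each cycle imaged Cy3-labelled switching-strand clusters, annealed to 100 nM quencher-labelled ATP aptamer on a modified Illumina MiSeq flow-cell, first in selection buffer and then after 15 min with 500 uM ATP at 22 °C. The fluorescence ratio is summed target-cycle over summed buffer-cycle Cy3 intensity per cluster, averaged per switch-domain sequence, with clusters outside 100-1000 RFU excluded.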
# 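Note: ATP exposure 15 min at 22 °C before imaging.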
row,Sequence,switch fluorescence ratio
1,AGGGCTTATC,1.05
2,TATCATAAA,1.01
3,TCTCCAACA,1.06
4,GACTCGACGT,1.03
5,AACACGTCCC,1.07
6,ATTGATTTGA,0.989
7,AGCAAAATTT,1.02
8,CAAGCTAGAA,1.03
9,CTGCTTGATA,0.974
10,AAACACACAG,1.12
11,ATAAAAAAAA,1.08
12,AATTGAACCC,1.06
13,TCAGGTGTTC,1.57
14,AACCTAATTG,0.98
15,TAATTCGTCA,0.987
16,ATTGGCTCGC,1
17,TGAGGCGCTG,0.995
18,TTACAATTAG,1.03
19,AGACTAGCAA,1.86
20,AGAAGCGGAC,1.77
21,ATCGCCCGCC,1.14
22,ACATTACCGG,1.24
23,GGTTCCTCAG,1.19
24,TTGGGCTGC,1.38
25,ATTCGCTAGC,1.12
26,AGAGGTTTAT,1.02

row,Sequence,switch fluorescence ratio
1,GACAATGTCC,1.02
2,TACCAGCGAT,1.39
3,AGAAACTGG,1.05
4,CAATTACGTA,1.15
5,ACTATTTTCT,0.976
6,CAGTGAAGGA,1
7,GTACTGAGCC,1.05
8,TACAAAGCT,1.09
9,CTTTTTACGA,1.01
10,ACTCTTGGGA,1
11,AGTTAGAATC,0.992
12,AACACGGATT,1.02
13,TCATAGAAAA,1.01
14,TCTTAATTGA,1.02
15,AGGGAATGGG,0.97
16,GGCAGTAGGG,0.994
17,AAACCTTTTG,1.17
18,CTCGAAAGGG,1.02
19,AAAGCCTATC,1.04
20,TCCGCAGTGT,1.19
21,TATGTGAAAC,1.04
22,ATCAAACGA,1.02
23,TGTATGGTAT,1.02
24,AACGAAGGAA,1.06
25,AACGGGGGGC,1.06
26,TACGGTTGGT,1.03

row,Sequence,switch fluorescence ratio
1,CGATGGACGT,0.987
2,CTCCTTTGTA,0.992
3,TCACCTGCCT,1.59
4,AGTCGGTTTC,0.941
5,TGACAGGCTC,0.996
6,TTCAAGGC,1.07
7,CAATCGGTG,0.989
8,TCCAGGCTAG,0.981
9,TGACTTCACG,1.04
10,CAGCTCACGT,1.05
11,TCCATGTTAC,1.19
12,ACTATCATCC,1.02
13,TTAGGAATTG,1.04
14,CTTCAATACA,1.19
15,AGAGGATCTA,1.08
16,AAGCTATTT,0.996
17,TAAGTATTTC,1.03
18,CCGCAGGTAA,1.58
19,TGTAACTTC,1.05
20,TATACAGCCA,1.05
21,TGAAATGTCT,0.984
22,GCGAGGGACG,0.976
23,CAGTCTGGCA,1.02
24,GGATTTCGTA,0.991
25,TGATATAATC,0.979
26,AAGCGAGTGT,1

row,Sequence,switch fluorescence ratio
1,ATGAAGGAGT,1.01
2,ACGCCGAGAG,1.08
3,CAGAAGCTCG,1.02
4,ATTCTAGAAT,0.929
5,CCTTTCTGCC,1.06
6,TTATCATGTA,1
7,CGTCACACAA,1.2
8,AGTTACGGA,1.03
9,AGCTGGGTAC,1.39
10,ATAGATAGAG,0.956
11,TATTATTCGG,0.956
12,TCGCGGCCGT,1.03
13,TTCTGCAGAC,1.83
14,GTATGGTGAG,0.976
15,TTGTGACGAG,1.04
16,GTTATTTTCA,0.985
17,TCCGTTCTGA,1.01
18,ATATATGGA,1.04
19,AAGCTAGGTA,0.999
20,CCTTAGGTCT,1.05
21,ACTCAGATGA,1.02
22,CGTAGAGCTT,1.05
23,AGGCTAAATT,0.96
24,CATGTGGCGT,0.979
25,CCGGCAGCGA,4.07
26,TGGCTGGGCC,1.02

row,Sequence,switch fluorescence ratio
1,CTTAAAGCCT,1.2
2,TTCGGGTGGG,1.01
3,ATTGTAACTC,0.958
4,CTGTAAGTAT,1
5,GCAGCCAAAT,1.01
6,TCTCCTATAA,1.3
7,CCCGATGAGA,1.02
8,GATGGCGAAG,1.01
9,ATCAAATAGG,0.981
10,GTAAGACAAG,1.01
11,TCTTGAGTGG,0.991
12,TGATCCCCCC,1.09
13,TAATATCTTC,0.999
14,CTTACCAGTC,1.05
15,GGGAAAGTTC,0.978
16,ATATGTCGCG,1.02
17,ATGGAACAGA,1.12
18,CGATAGGCGA,1.01
19,TGAATGATTA,1
20,TTAAGTTTCG,0.987
21,CTGGGTTATG,1.01
22,GTTCGGCTGT,0.963
23,CATCCTTATA,1.06
24,GCAGATCGCC,1.03
25,AGGCTATAGA,1.05
26,CTCATAAATA,1.03

row,Sequence,switch fluorescence ratio
1,ACGGCTGACG,1.06
2,CAATATTGCT,0.988
3,TGGGCCACT,0.973
4,AAAGACGGAG,1.07
5,TTGCTTGTT,1.03
6,CATCGGAAAT,1.05
7,CAGTTAGCAA,4
8,ACTCTATAGT,1.08
9,CTCGAAACGT,1.08
10,ACGAGTCAAT,3.15
11,AGGACACATT,1.05
12,TTGTAGAACA,1.01
13,AGCAGACTTG,0.998
14,GATTAATCCA,1.01
15,AAAAAGCGCG,0.975
16,ACAAGCGGAG,0.97
17,GACTCAAGTA,1.04
18,CGCATCGGCG,1.04
19,CCGTGAGCTT,3.87
20,TCACTTGGGA,0.997
21,CCGCTGTTCG,1.77
22,ATTTTATTT,1.01
23,AATGGTACAC,1.05
